Assay results from PMC4336329 (PLoS ONE, 2015).
In all, about 310,000 compounds went through this assay and about 2,200 (0.71%) showed an effect of 50% or more. The effect is printed as a negative number. Some of the results follow.

Target: human ether-à-go-go-related gene (hERG) potassium channel (human, UniProt Q12809)
Assay: primary screen, population patch clamp on CHO cells stably expressing hERG

Sequence of human ether-à-go-go-related gene (hERG) potassium channel (Q12809 whole entry, looked up): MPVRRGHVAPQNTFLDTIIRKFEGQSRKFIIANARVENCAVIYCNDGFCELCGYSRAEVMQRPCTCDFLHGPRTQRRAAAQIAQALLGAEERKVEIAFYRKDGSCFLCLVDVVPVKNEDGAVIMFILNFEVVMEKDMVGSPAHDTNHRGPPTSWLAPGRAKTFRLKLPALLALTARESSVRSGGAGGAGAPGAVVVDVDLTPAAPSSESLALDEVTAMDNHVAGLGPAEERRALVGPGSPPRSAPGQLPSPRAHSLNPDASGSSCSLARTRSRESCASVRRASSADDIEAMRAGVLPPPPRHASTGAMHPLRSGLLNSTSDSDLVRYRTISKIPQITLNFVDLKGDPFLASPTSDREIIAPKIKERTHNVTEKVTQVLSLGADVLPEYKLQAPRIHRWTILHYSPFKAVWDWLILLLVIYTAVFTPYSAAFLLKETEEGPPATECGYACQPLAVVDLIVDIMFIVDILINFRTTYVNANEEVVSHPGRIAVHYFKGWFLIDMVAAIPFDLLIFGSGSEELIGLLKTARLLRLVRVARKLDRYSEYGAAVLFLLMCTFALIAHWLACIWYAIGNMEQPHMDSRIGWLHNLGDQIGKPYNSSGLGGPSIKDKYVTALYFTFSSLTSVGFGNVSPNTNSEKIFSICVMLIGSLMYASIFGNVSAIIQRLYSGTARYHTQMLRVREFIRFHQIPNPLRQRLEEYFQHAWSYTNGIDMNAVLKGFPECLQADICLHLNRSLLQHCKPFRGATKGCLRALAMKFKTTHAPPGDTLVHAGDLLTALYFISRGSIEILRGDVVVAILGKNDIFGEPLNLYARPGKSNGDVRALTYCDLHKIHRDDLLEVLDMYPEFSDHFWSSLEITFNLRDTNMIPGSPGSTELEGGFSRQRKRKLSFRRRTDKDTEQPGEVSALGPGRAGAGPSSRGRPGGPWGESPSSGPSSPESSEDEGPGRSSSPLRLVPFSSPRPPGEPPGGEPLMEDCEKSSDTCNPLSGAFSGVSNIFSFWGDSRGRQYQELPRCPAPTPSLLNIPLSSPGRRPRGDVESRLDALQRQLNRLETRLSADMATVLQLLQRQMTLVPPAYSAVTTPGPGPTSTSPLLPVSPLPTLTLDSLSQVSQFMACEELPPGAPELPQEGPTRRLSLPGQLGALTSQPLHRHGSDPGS

Row | SMILES | hERG current change (%, negative = inhibition) at 1uM
1 | O=S(=O)(NCc1ccccn1)c1ccc(Br)s1 | 12.1%
2 | COc1ccc(-c2c(NC(=O)c3ccco3)oc3c(C)cccc3c2=O)cc1OC | 15.6%
3 | COC(=O)c1cc(S(=O)(=O)NCC2CCN(Cc3cccc(F)c3)CC2)c[nH]1 | 2.87%
4 | Cc1ccc(-c2ccnc3c(Br)c(C)nn23)cc1 | 15%
5 | COc1ccc(S(=O)(=O)N(C)c2nc3ccccc3n3c(CC(C)C)nnc23)cc1 | -10.2%
6 | N#Cc1ccc[n+](CC(=O)c2ccc(Cl)cc2)c1.[Br-] | 13.2%
7 | [N-]=[N+]=N[C@@H]1C[C@H](n2ccc(=O)[nH]c2=O)O[C@@H]1CO | 8.18%
8 | Cc1noc(C)c1CSCC(=O)Nc1nc(-c2ccc(F)c(F)c2)cs1 | -3.35%
9 | CCOCCCNC(=O)C(c1ccc(OC)cc1)N(Cc1ccc2c(c1)OCO2)C(=O)c1ccccc1O (stereo not shown) | 9.72%
10 | COc1cc(/C=C/C(=O)OCC(=O)NCc2ccco2)ccc1OCC#N | 10.2%
11 | COc1cc2c(cc1OC)CN(C(=O)CNC(=O)c1ccc(OC(F)F)cc1)CC2 | -22.5%
12 | CC1=C(c2ccccc2)CCC1=O | 4.36%
13 | O=C(Nc1ccc2c(c1)OCO2)N1CCCC1 | 21.5%
14 | CCc1ccc(NC(=O)CSc2nc3ncc(Br)cc3[nH]2)cc1 | 18.3%
15 | CCn1cc(C(=O)NCCC(=O)NCCO)c(=O)c2cc3c(cc21)OCO3 | 17.4%
16 | O=C(Cc1ccc(Cl)cc1)Nc1cccnc1 | 11.1%
17 | O=C(Nc1ccc2c(c1)nc1n2CCSC1)c1ccco1 | 9.88%
18 | COc1ccccc1NC(=O)c1ccc(NC(=O)COC(=O)C2CCCCC2)cc1 | 17.7%
19 | CCOc1ccc(NC(=O)C2CCN(S(=O)(=O)c3ccc4c(c3)N(C(C)=O)CCO4)CC2)cc1 | 13.8%
20 | CCOc1ccc(N(CC(=O)NC2CCCC2)C(=O)CCC(=O)Nc2nc(C)cs2)cc1 | 5.15%
21 | CN(C)S(=O)(=O)c1ccc(N2CCOCC2)c(C(=O)NCc2ccc3c(c2)OCO3)c1 | 5.83%
22 | CCOC(=O)N1CCN(C(=O)CSc2nnc(C3COc4ccccc4O3)o2)CC1 (stereo not shown) | 2.78%

Row | SMILES | hERG current change (%, negative = inhibition) at 1uM
23 | Clc1ccc(SCCCCN2CCOCC2)cc1.O=C(O)C(=O)O | 5%
24 | COC(=O)c1[nH]c2cccc(OC)c2c1NC(=O)CCN1CCN(c2ccccc2OC)CC1 | -7.96%
25 | Cc1ccc2cc(COC(=O)c3cccc([N+](=O)[O-])c3)c(=O)[nH]c2c1 | 12.6%
26 | COc1ccccc1NC(=O)CSc1nc2ccccc2cc1Cc1ccccc1 | 14.5%
27 | O=C(Oc1ccc(C(=S)N2CCOCC2)cc1)c1ccc(Br)cc1 | 17.5%
28 | CN(Cc1cccc(-n2cccn2)c1)C(=O)CCc1nnc(C2CCCCC2)o1 | 1.1%
29 | CCCCc1cc(=O)oc2c(CN(CC)CC)c(O)c(Cl)cc12 | -10.1%
30 | O=C(COC(=O)c1ccccn1)Nc1cccc(Cl)c1Cl | 13.7%
31 | CC(=O)N1CCN(S(=O)(=O)c2cccc(C(=O)NC3CCC(C)CC3)c2)CC1 (stereo not shown) | 13.1%
32 | N#CC(c1ccc(F)cc1)c1ccc(C(=O)c2ccccc2)cc1 (stereo not shown) | 7.99%
33 | Cc1ccc(S(=O)(=O)ON2C(=O)c3cccc4cccc(c34)C2=O)cc1 | 5.41%
34 | CCCC[n+]1cc(/N=C(\[O-])OC)on1 | 12.5%
35 | COc1ccc(C(C(=O)NCC2CCCO2)N(C(=O)Cn2nnc3ccccc32)c2ccc(NC(C)=O)cc2)c(OC)c1 (stereo not shown) | 12.6%
36 | CC(C)(C)OC(=O)NNC(=S)NCc1ccc(Cl)cc1 | 10.5%
37 | CC(C)c1ccc(N2CC(C(=O)Nc3nccs3)CC2=O)cc1 (stereo not shown) | -3.96%
38 | CC(=O)C(C)n1cnc2scc(-c3ccc(C)cc3)c2c1=O (stereo not shown) | 13.1%
39 | O=C(Cc1ccc([N+](=O)[O-])cc1)Nc1ccc(O)cc1C(=O)O | 6.82%
40 | O=C(COC(=O)Cc1ccccc1)Nc1ccc(F)cc1 | 18.4%
41 | CCC(C)(C)NC(=O)CN(C(=O)CCC(=O)Nc1nccs1)c1ccccc1C | 13.5%
42 | Cn1c(=O)c(=O)n(C)c2cc(N3CCCC3)c(NS(=O)(=O)c3ccc(F)cc3)cc21 | -7.01%
43 | CC(C)CCn1c(NCCN(C)C)nc2c1c(=O)[nH]c(=O)n2C | -12.7%
44 | C/C(=N/O)c1ccccn1 | 2.69%

Row | SMILES | hERG current change (%, negative = inhibition) at 1uM
45 | O=C(Nc1ccccc1C(=O)O)c1cncc(Br)c1 | 16.9%
46 | COCCNC(=O)Cn1cc(C(=S)N2CCCCC2)c2ccccc21 | 10.9%
47 | O=C(c1oc2ccccc2c1CSCc1ccccc1)N1CCN(c2ncccn2)CC1 | 11.8%
48 | CCN(Cc1ccncc1)C(=O)c1ccc(C)o1 | 9.86%
49 | Cc1cc(Nc2ccc(N(C)C)cc2)n2ncnc2n1 | 15.9%
50 | O=C(NCC1CCCO1)c1ccc(S(=O)(=O)N2CCC(c3nc4ccc(Cl)cc4[nH]3)CC2)cc1 (stereo not shown) | 5.3%
51 | CCOC(=O)C1=C(C)NC(=O)NC1c1ccc([N+](=O)[O-])o1 (stereo not shown) | 9.81%
52 | O=C(c1ccc2c(c1)CCN2S(=O)(=O)c1ccccc1)N1CCN(c2ccccc2F)CC1 | 17%
53 | Cc1nn(-c2ccccc2)c(C)c1C(=O)N1CCN(S(=O)(=O)c2ccccc2)CC1 | -7.48%
54 | O=C(CN1C(=O)S/C(=C/c2ccncc2)C1=O)Nc1ccccc1 | -0.344%
55 | O=C1N(S(=O)(=O)c2ccccc2F)C(=O)C2(CCCC2)N1S(=O)(=O)c1ccccc1F | 4.97%
56 | COc1cc(-c2nc3ccc(N4CCN(C)CC4)cc3[nH]2)cc(OC)c1OC | 21.3%
57 | CC1CCN(C(=O)COC(=O)c2n[nH]c(=O)c3ccccc23)CC1 | 6.07%
58 | Cc1cc(C)cc(NC(=O)CN2CCc3ccccc3C2)c1 | 3.26%
59 | CC1CCc2nn(CC(=O)NCCCN3CCCC3=O)cc2C1 (stereo not shown) | 9.88%
60 | CCOC(=O)Cc1csc(NC(=O)c2ccc(C)c(S(=O)(=O)N3CCOCC3)c2)n1 | -2.74%
61 | CC(C)CN(C(=O)/C=C/c1nc2ccccc2s1)C1CCS(=O)(=O)C1 (stereo not shown) | 4.92%
62 | FC(F)Oc1cccc(NC(=S)N2CCN(c3ccccn3)CC2)c1 | 4.81%
63 | COc1ccc(/C=C/c2noc(-c3ccccc3OC(C)=O)n2)cc1 | 9.08%
64 | CCCCNC(=O)N1CCC(CCC(=O)N(C)Cc2ccccc2)CC1 | 7.83%
65 | COc1ccc([C@H]2CC(=O)C=C(c3cc(OC)ccc3OC)C2)cc1 | 8.44%
66 | Cc1ccc(-c2nc(C=Nc3ccccc3)c(O)o2)cc1 | 11.5%

Row | SMILES | hERG current change (%, negative = inhibition) at 1uM
67 | COc1cc(Cl)ccc1OCc1cc(C(=O)N(C)CCc2c(C)n[nH]c2C)no1 | 14.3%
68 | Cc1cc(C)c(C#N)c(Nc2ccc3c(c2)OCCO3)n1 | 4.9%
69 | COc1ccc(CCNCc2ccc(C)s2)cc1OC.Cl | 4.6%
70 | Cc1ccc(N(CC(=O)Nc2ccccc2C(=O)NCc2ccco2)S(=O)(=O)c2ccccc2)cc1C | 13.7%
71 | CCN(CC(=O)Nc1cc(Cl)ccc1C)C(=O)CN1C(=O)NC(CC)(c2ccccc2)C1=O (stereo not shown) | 12.4%
72 | O=C1NC(CCc2ccccc2)C(=O)N1CCOc1cccc(Br)c1 (stereo not shown) | 7.3%
73 | Cc1cc(S(=O)(=O)N2CCc3ccccc3C2)ccc1F | 8.84%
74 | Cc1[nH]c2nc3ccccc3n2c(=O)c1CCC(C)C | 16.4%
75 | CC(C)CNC(=O)CN1c2cccc3cccc(c23)S1(=O)=O | 7.96%
76 | COCC(=O)Nc1c(C(=O)Nc2ccc3c(c2)OCO3)oc2ccccc12 | 5.88%
77 | CCOC(=O)c1ccc(NC(=O)N2CCN(C(=O)c3ccco3)CC2)cc1 | 15.1%
78 | Cn1c2ccccc2c2cc(/C=N/NC(=O)c3ccc(N)cc3)ccc21 | 11.1%
79 | O=C(O)CNS(=O)(=O)c1ccc(F)cc1 | 20.1%
80 | COc1ccc(-c2ccc3oc(-c4ccsc4)c(-c4ccc(OC)cc4)c3c2)cc1 | 9.23%
81 | Cc1onc(-c2ccccc2)c1C(=O)NC(C)CCc1ccccc1 (stereo not shown) | 13.4%
82 | O=C1/C(=C/c2cccnc2)Oc2cc(OS(=O)(=O)c3ccc(F)cc3)ccc21 | -2.14%
83 | Cc1ccc(N(C(=O)CNC(=O)c2ccco2)C(C(=O)NCC2CCCO2)c2ccccc2)cc1 (stereo not shown) | -1.46%
84 | CCOC(=O)c1cc2c(C)n(-c3ccc(C)cc3)c(C)c2ccc1=O | -13.6%
85 | Cc1ccc(-c2nn(CC(=O)NCc3ccco3)c(=O)c3ccccc23)cc1 | 5.08%
86 | COC(=O)c1[nH]c2ccc(F)cc2c1NC(=O)Nc1ccc(OC)cc1 | 7.73%
87 | CNc1c([N+](=O)[O-])cnn1-c1ccc(Cl)cc1Cl | 1.93%
88 | O=C(CSc1nnc(COc2ccc(Cl)cc2)o1)N1CCCCC1 | -5.25%
